# The list shows a part of the results. At the low end of the ranking the order means little.
# Target: T1, ELK1 (UniProt P19419)
# T1 sequence: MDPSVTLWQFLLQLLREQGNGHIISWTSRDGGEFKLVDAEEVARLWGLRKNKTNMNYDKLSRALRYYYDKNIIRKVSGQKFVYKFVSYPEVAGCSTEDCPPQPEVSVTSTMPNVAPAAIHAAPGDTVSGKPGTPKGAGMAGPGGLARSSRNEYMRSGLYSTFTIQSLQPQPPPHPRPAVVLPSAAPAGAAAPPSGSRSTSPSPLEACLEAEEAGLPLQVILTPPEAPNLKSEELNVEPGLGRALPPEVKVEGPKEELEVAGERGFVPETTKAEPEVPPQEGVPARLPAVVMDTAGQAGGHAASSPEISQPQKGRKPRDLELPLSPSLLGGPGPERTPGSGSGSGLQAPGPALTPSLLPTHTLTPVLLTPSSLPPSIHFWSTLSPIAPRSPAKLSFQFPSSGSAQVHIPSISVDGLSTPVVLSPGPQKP
# Experiment: custom PBM
# Details: custom protein-binding microarray; buffer, salt, pH and temperature not stated; high values mean tight binding; double strand, one strand shown
row,Sequence,binding signal (log fluorescence intensity)
1,GTATATAGGATCCCATCCAACACACGTGTTAAAATGGTCTTGATTCGCTTGACGCTGCTG,8.75
2,GATTAATTTGTGCCCTTATTCGCACGTGCCATAACAGTCTTGATTCGCTTGACGCTGCTG,8.61
3,CTGGGAGTTGACCCAACTCTGCCACGTGGGTCGTTTGTCTTGATTCGCTTGACGCTGCTG,8.86
4,TCCGGCTACCAGCTCCACCCACTTCAGGGCTTGTAGGTCTTGATTCGCTTGACGCTGCTG,8.92
5,GTGTATAGGATCCCATCCAACACACGTGTTAAAATGGTCTTGATTCGCTTGACGCTGCTG,8.85
6,GGAAAAAGGCCCAGCGTAACACCGGAAGTGGGCTTAGTCTTGATTCGCTTGACGCTGCTG,10.8
7,CACAATTTTTACAGTAATGTAGCACGCGTTACTCCTGTCTTGATTCGCTTGACGCTGCTG,9.11
8,GGAAAAAGGCCCAGGGTAACACCGGAAGTGGGCATAGTCTTGATTCGCTTGACGCTGCTG,10.9
9,CTGGGACTAGACCCAACTCTGCCACGTGGGTCGTTTGTCTTGATTCGCTTGACGCTGCTG,8.74
10,GTGTATAGGATCCCATCCAACACACGTGTTACAATGGTCTTGATTCGCTTGACGCTGCTG,9.02
11,GGAGAAAGGCCCAGGGTAACACCGGAAGTGGGCTTAGTCTTGATTCGCTTGACGCTGCTG,10.9
12,GCTGCTGCGGTGCATACCCCATCGGATGTGACCCCGGTCTTGATTCGCTTGACGCTGCTG,9.05
13,TACTGACTTATTTATGCGAATGCACATGAATAGACCGTCTTGATTCGCTTGACGCTGCTG,8.87
14,CAGCATAGGACTTCTTCCCTGAAGCAATTGATCACCGTCTTGATTCGCTTGACGCTGCTG,8.95
15,CTGGGACTTGACCCAACTCTGCCACGTGGGTCGTATGTCTTGATTCGCTTGACGCTGCTG,8.98
16,TGTCGGGTAAGGGAATGTAGATCACGTGAATGTAAAGTCTTGATTCGCTTGACGCTGCTG,8.95
17,TGTAGGGTAAGGGAATGTAGATCACGTGAATGAAAAGTCTTGATTCGCTTGACGCTGCTG,8.82
18,GTGTATAGGATCCCATCCAACACACATGTTAAAATGGTCTTGATTCGCTTGACGCTGCTG,8.76
19,GATTAATTTCTGCCCGTATTCGCACGTGCCATAACAGTCTTGATTCGCTTGACGCTGCTG,9.07
20,GGAAAAAGGCCCAGGGTAACACCGGAAGTGGGCTCAGTCTTGATTCGCTTGACGCTGCTG,10.9
21,GATTAATTCCTGCCCTTATTCGCACGTGCCATAACAGTCTTGATTCGCTTGACGCTGCTG,11.1
22,TAAAGGGAAGACGGTTCTGGTAGTTCCGGGTATTAAGTCTTGATTCGCTTGACGCTGCTG,11.3
23,CAGCATAGGACTTCTTCCCTGAAGCAATTGATAACTGTCTTGATTCGCTTGACGCTGCTG,8.96
24,TACTGACTTATATATGCGAATGCGCATGAATAGACCGTCTTGATTCGCTTGACGCTGCTG,8.86
25,TCCTGCTACCAGCTCCACCCACTTCAGGCCTTGTAGGTCTTGATTCGCTTGACGCTGCTG,8.89
26,TAAAGGGAAGACGGCTGTGGTAGTTCCGGGTATTAAGTCTTGATTCGCTTGACGCTGCTG,11.2
27,GCTGCTGCGGTGCATACCCAACCGGATGTGACCCCGGTCTTGATTCGCTTGACGCTGCTG,10.4
28,TCCGGCTACCAGCTCCAGCCACTTCAGGCCTTGTAGGTCTTGATTCGCTTGACGCTGCTG,8.75
29,GTGTATAGGATCCCATCCAACACACCTGTTAAAATGGTCTTGATTCGCTTGACGCTGCTG,8.91
30,TACTGACTTATATATGCGGATGCACATGAATAGACCGTCTTGATTCGCTTGACGCTGCTG,9.12

# From PMC6602471
